# Test results as given in publication PMC4336329 (PLoS ONE, 2015).
# Among all 310,000 compounds or so, about 2,200 (0.71%) showed an effect of 50% or more. Effects have a minus sign here. The list shows a part of the results.
# Biological target: human ether-à-go-go-related gene (hERG) potassium channel (human, UniProt Q12809)
# Test: primary screen, population patch clamp on CHO cells stably expressing hERG
# human ether-à-go-go-related gene (hERG) potassium channel, sequence (Q12809 whole entry, looked up): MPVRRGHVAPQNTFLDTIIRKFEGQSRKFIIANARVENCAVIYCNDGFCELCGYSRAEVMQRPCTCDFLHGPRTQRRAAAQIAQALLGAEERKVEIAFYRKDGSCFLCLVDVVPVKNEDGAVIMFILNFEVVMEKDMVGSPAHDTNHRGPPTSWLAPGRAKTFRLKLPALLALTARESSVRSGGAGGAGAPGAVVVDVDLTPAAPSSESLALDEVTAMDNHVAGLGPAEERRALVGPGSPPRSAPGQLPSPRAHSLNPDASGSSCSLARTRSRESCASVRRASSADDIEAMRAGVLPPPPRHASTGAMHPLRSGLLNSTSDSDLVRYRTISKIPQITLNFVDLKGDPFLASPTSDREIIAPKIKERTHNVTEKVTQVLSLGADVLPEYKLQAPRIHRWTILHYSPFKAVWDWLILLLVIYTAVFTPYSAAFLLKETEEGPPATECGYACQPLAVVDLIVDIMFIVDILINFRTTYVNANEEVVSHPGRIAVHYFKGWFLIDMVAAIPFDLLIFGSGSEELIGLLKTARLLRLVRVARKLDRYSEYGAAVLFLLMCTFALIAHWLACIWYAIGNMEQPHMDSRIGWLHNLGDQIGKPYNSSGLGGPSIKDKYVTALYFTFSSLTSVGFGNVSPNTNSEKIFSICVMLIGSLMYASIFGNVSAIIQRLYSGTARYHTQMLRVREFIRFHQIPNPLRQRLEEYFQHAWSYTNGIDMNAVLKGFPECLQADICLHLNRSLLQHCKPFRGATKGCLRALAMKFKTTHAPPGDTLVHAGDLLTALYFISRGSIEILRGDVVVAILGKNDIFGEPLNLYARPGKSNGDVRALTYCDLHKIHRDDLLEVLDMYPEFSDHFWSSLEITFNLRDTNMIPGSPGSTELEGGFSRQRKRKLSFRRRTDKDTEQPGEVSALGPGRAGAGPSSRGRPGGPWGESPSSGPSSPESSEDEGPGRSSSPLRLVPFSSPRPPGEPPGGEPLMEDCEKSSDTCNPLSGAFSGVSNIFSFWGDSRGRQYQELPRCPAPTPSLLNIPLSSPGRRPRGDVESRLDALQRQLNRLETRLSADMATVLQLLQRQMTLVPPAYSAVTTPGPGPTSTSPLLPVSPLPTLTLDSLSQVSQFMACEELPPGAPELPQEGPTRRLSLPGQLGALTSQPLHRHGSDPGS
row,Compound,"hERG current change (%, negative = inhibition) at 1uM"
1,Cc1ccc(OC(C)C(=O)N(C)c2ccccc2)c([N+](=O)[O-])n1 (stereo not shown),7.8%
2,O=C(COc1ccccc1F)Nc1nnc(-c2ccncc2)s1,3.53%
3,CSc1n[nH]c(-c2sccc2OCc2ccc(C)cc2)n1,7.77%
4,CO/N=C/C(c1ccc(Cl)nc1)S(=O)(=O)c1ccccc1 (stereo not shown),10.2%
5,CS(=O)(=O)NN1C(=O)c2ccccc2NC1c1ccccc1O (stereo not shown),15.8%
6,CCN(C(=O)COC(=O)c1ccc2c(=O)n3c(nc2c1)CCC3)C1CCS(=O)(=O)C1 (stereo not shown),6.99%
7,CCN(CC)C(=O)c1ccc(NC(=O)C2=C(C)OCCS2)cc1,23.5%
8,CCCOC1CCCN(C(=O)c2ccc(OC3CCN(C(=O)COC)CC3)cc2)C1 (stereo not shown),18.4%
9,N#CC1=C(N2CCOCC2)/C(=C\c2ccccc2)CC1,5.07%
10,O=C(NCC1CCCO1)c1ccc2c(c1)N(Cc1ccc(F)cc1Cl)C(=O)CS2 (stereo not shown),10.1%
11,CC(C)NC(=O)c1cnc(Sc2ncc(C(F)(F)F)cc2Cl)n1C,12%
12,CS(=O)(=O)N1CCN(c2ccccc2NC(=O)c2ccc3c(c2)OCCO3)CC1,9.09%
13,O=C(NCCSCc1ccc(Cl)cc1)c1cccs1,3.48%
14,Cc1ccc(-n2nc3c(N4CCC(C(=O)N5CCN(C)CC5)CC4)nnc(C)c3c2C)cc1,14.2%
15,CCN(CC)S(=O)(=O)c1ccc(NC(=O)c2cc(=O)[nH]c3ccccc23)cc1,14.8%
16,Cc1ccc([N+](=O)[O-])cc1N=C(c1ccc([N+](=O)[O-])cc1)N1CCOCC1,-1.45%
17,COc1ccc(-n2c(O)c(C(C)=NCc3ccc4c(c3)OCO4)c(=O)[nH]c2=O)cc1,9.4%
18,Cc1nc(CNS(=O)(=O)c2ccc(F)cc2)cs1,13.2%
19,O=C(NC(=S)N1CCc2ccccc21)c1ccco1,8.55%
20,Cc1csc(SCc2nnc(-c3ccccc3Br)o2)n1,2.27%
21,Cc1ccc(C)c(NC(=O)CSc2nc3ccccc3nc2N2CCOCC2)c1,19.2%
22,CCN1CCN(CCCNC(=O)C2CCCN(c3nnc(-n4cccc4)s3)C2)CC1 (stereo not shown),10.8%
23,CC(C)(C)NC(=O)CSc1nc(O)cc(=O)n1-c1ccccc1F,3.77%
24,COc1ccc(CN2CCCC(C(=O)c3ccc(Cl)cc3)C2)c(OC)c1 (stereo not shown),-53.6%
25,Cc1[nH]c2ccccc2c1C(=O)CN1C(=O)NC2(CCCCCC2)C1=O,7.2%
26,CCOC(=O)c1c(NC(=O)C(=O)N/N=C/c2ccccc2OC)sc2c1CCCCC2,-7.14%
27,Cn1c(Cc2cccc3ccccc23)nnc1SCC(=O)N1CCN(c2cccc(Cl)c2)CC1,1.92%
28,Cc1ccc(OCC(=O)Nc2nc(C)c(Cl)cc2Cl)c([N+](=O)[O-])n1,7.99%

row,Compound,"hERG current change (%, negative = inhibition) at 1uM"
1,CC(=O)N(/N=C1\Sc2ccccc2C1=O)c1ccc(C)cc1C,13.4%
2,NC(=O)c1nsc(C(=O)N(c2ccccc2)C(C(=O)NC2CCCC2)c2ccncc2)c1N (stereo not shown),20.6%
3,CCc1c(C)nc(SCC(=O)Nc2c(C)n(C)n(-c3ccccc3)c2=O)[nH]c1=O,-5.61%
4,O=C(NCc1cccnc1)C(=O)Nc1nc(-c2ccccc2)cs1,1.73%
5,Cl.Nc1c2c(nc3ccccc13)CCCC2,-12.6%
6,O=C(COC(=O)c1nn(-c2ccccc2C(F)(F)F)cc1O)c1ccc(OC(F)F)cc1,15.6%
7,Cc1cc(C(=O)COC(=O)c2cc(Cl)ccc2N)c(C)n1Cc1ccco1,13.2%
8,COc1ccccc1/C=C/C(=O)Nc1ccc2c(c1)CCC2,-1.7%
9,Cc1cc(Cl)cc(Cl)c1OCCCCN(C)C.O=C(O)C(=O)O,9.47%
10,O=C(CCSCc1ccccc1F)NCc1ccc(F)cc1,-0.0557%
11,CC1CCN(C(=S)c2ccc(N(C)C)cc2)CC1,10.6%
12,O=C(NCCC(=O)N1CCCC(C(F)(F)F)C1)c1ccccc1Cl (stereo not shown),12.9%
13,CCN1CCN(c2ccc(S(=O)(=O)N3CCCCC3)cc2NC(=O)COc2cc(C)ccc2Cl)CC1,10.2%
14,C/C(=N/NC(=O)c1ccn(C)n1)c1ccncc1,11.4%
15,COc1ccc(N(CC(=O)NCCSc2ccc(C)cc2)S(=O)(=O)c2ccccc2)c(OC)c1,15.9%
16,CS(=O)(=O)c1nc(S(=O)(=O)c2ccc(Cl)cc2)c(NCCN2CCOCC2)s1,10.7%
17,COC(=O)C1=C(c2ccc(OC)c(OC)c2)C[C@@H]2CC[C@H]1N2C(=O)NCCOc1ccccc1,10.5%
18,O=C(O)CCCCCn1c(SCC(=O)c2ccc(O)c(O)c2)nc2ccsc2c1=O,9.99%
19,Cc1cccc(NC(=O)c2ccc(S(=O)(=O)N(C)CC3CCCO3)cc2)c1C (stereo not shown),7.8%
20,CCC(=O)NC(Nc1c(C)n(C)n(-c2ccccc2)c1=O)C(Cl)(Cl)Cl (stereo not shown),13.7%
21,COc1ccc(C(=O)NCCSC2CCCCC2)cc1,4.88%
22,Cc1cc(CO)nn1-c1ccc([N+](=O)[O-])cc1,17.9%
23,Cc1ccc(NCC(=O)c2ccccc2)cc1Cl,13.7%
24,Cc1sc2ncnc(SC(C)C(=O)N3c4ccccc4Sc4ccccc43)c2c1C (stereo not shown),6.01%
25,Cc1[nH]c(C)c(S(=O)(=O)N2CCN(c3cccc(C(F)(F)F)c3)CC2)c1C(=O)N1CCCC1,19.9%
26,COc1ccc(NC(=O)C2CC(c3c(F)cccc3Cl)=NO2)cc1 (stereo not shown),6.39%
27,COc1ccc(NC(=O)N2CCN(c3ccc([N+](=O)[O-])cc3)CC2)cc1,-14.2%
